In paper PMC12136788:
The other results are listed elsewhere or left out.

T1: UNK ZnF1-3 (human, UniProt Q9C0B0 31-174)
T1 sequence: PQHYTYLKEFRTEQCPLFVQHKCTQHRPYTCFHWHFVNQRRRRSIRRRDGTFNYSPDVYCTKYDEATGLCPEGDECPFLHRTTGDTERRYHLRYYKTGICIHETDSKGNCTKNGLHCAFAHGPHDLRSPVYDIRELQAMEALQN

B1: chr6:41757443:41757444:+_ENSG00000214736_ENST00000398881|hu_mus|hu_hu_hu_mus_False|1_108 (ssRNA)
RNA: GGGAGUUCUACAGUCCGACGAUCGAACUGUCUGCUGGCAACAUCUCAGCCGACACUGGGGGAUGGGGGGGCAGUGGGGGGGGGUUCAGGCAAGGAGAGGGAGUCAACUUCAGCUGCCACUCAGGUAGGAUCUUGUGGGGCACACAACAGAGGAUUGAGCAUCA
B2: 72663996_72664116_663_5pUTR_ENSMUSG00000022883_ENSMUST00000023600|mouse|control|control (ssRNA)
RNA: GGGAGUUCUACAGUCCGACGAUCAGGCGAACAACAAAGAGCCUAAACCGAGGAGCAGUUGUGCGGUUUCCUGCCUCCACAGUCCUGCUGAGCCUCCCGGCGUGCGCCUCCACAGCGUGUGCCCUGGCGCCGCUGCGCGGCGAUCAACAGAGGAUUGAGCAUCA
B3: 31604843_31604963_1455_CDS_ENSG00000170456_ENST00000546299|human|control|control (ssRNA)
RNA: GGGAGUUCUACAGUCCGACGAUCCCACAAAAGGAAAACUAUGGUUCUUUUUACUUUGUCAAAGUUCUGCAUCUGUUCCCGGUUGGUCAGCCAGGAUUCCAUGUCCUGGGCAGUCUGAAUGACAAAUGCUUCGUAAUCUGCAAACAACAGAGGAUUGAGCAUCA
B4: chr9:95013113:95013114:-_ENSG00000196305_ENST00000443024|hu_hu|hu_hu_hu_mus_False|18_88 (ssRNA)
RNA: GGGAGUUCUACAGUCCGACGAUCCUCAGUCAGAAAGGGCGUGUAAGGAGCCAUAAGUCUGCACAGAGAAAGCAGGACACUGAACAGUGUCUCCAGAGCCAUGACACAGUCUUCCACCCCAUUUUCACCCUUUAACCUCCUCCUCAACAGAGGAUUGAGCAUCA
B5: chr1:229634031:229634032:-_ENSG00000069248_ENST00000261396|hu_mus|FALSE|FALSE (ssRNA)
RNA: GGGAGUUCUACAGUCCGACGAUCCUGGUGAAUCUUUCCUGAGCUUUCAGGAAUCAAUCGAACCAACUGGCUCCCCACGGAGGACAGGAUGAAACUUCCUCCCUGCACUGCUGUCAGGAACCUGCACAUCUUCUCGCCUCCCAACAACAGAGGAUUGAGCAUCA
B6: 87797487_87800839_256_3pUTR_ENSMUSG00000020483_ENSMUST00000020775|mouse|control|control (ssRNA)
RNA: GGGAGUUCUACAGUCCGACGAUCUGCCUUCCGGUCAGACAUCGUGACACGUCACGCAGGCGAGUCCGCACAGGCCCCUGGGGAGCAGCGCUGGGCUGAAGCAAAGCUCGAGCAGGGGCGGUGUCCCCUGGGCUCGUCCUGCAGCAACAGAGGAUUGAGCAUCA
B7: chr1:58468927:58468928:-_ENSMUSG00000026034_ENSMUST00000148330|mus_mus|mus_mus_mus_hu_False|8_18 (ssRNA)
RNA: GGGAGUUCUACAGUCCGACGAUCAAUUACUGAAAAAGAUGUUCAUUACCUUAGCUAUGUACUUAAUGAACCAAAUUACCCAAACAAAAUAAACAUGGCAAUAUAAAAAUGUUAAGAAAAUAACUUAAUUAAAAGCUUAACUUACAACAGAGGAUUGAGCAUCA
B8: chr1:46159212:46159213:+_ENSG00000159596_ENST00000372025|hu_mus|hu_hu_hu_mus_True|1_48 (ssRNA)
RNA: GGGAGUUCUACAGUCCGACGAUCUCUGAUCCCUCCCAAGAAAGCUAGGAAACCGGCUCCAUAAGCCAUCUGAGUGAAAGCUAGGACGGGAAUAUAAGACUUUGUUAUUACCAUGAGAAGUGGGGGAGCAGUAAAGGGGAUUAGCAACAGAGGAUUGAGCAUCA
B9: chr6:11583160:11583161:+_ENSG00000205269_ENST00000379426|hu_mus|FALSE|FALSE (ssRNA)
RNA: GGGAGUUCUACAGUCCGACGAUCUUAAAAAUCAAUAGUAUACACUAUUUACAACCUGUUAGGUAUUACAUAUAAACAUAGUUGAAAUAAUCCUUCAGAAUGAAAUUGUUUUAUGUAAACAUGCAACACACACACUCUUACAGUCAACAGAGGAUUGAGCAUCA
B10: chr13:100193275:100193276:-_ENSMUSG00000052727_ENSMUST00000064762|mus_mus|motif|central (ssRNA)
RNA: GGGAGUUCUACAGUCCGACGAUCAGGCUAGAAAUUGUUUCUCUUCACGUGUGGACCAGCCUAACAGCUCCCAUUAAAUUACGGUCUUGUGUGUAUUGAGCUUGUCUGAUGAAGUGAGAAGCAAGUGGGCUUACAGGCAACGAACAACAGAGGAUUGAGCAUCA
B11: chr1:39494564:39494565:+_ENSG00000168653_ENST00000372967|hu_hu|hu_hu_hu_mus_True|58_108 (ssRNA)
RNA: GGGAGUUCUACAGUCCGACGAUCAUGUGCACGUCUCAUCGUUUUGUACCGAAGCAAGCACUCUUCGAAGUCAUCGAAUUCUAUCUUGCACUCCUUUUUCGCCCGGGUCCCACCGAUCCCGUGUGCACACUCUAUCCACUCUUUCAACAGAGGAUUGAGCAUCA
B12: chr6:114267272:114267273:-_ENSG00000196591_ENST00000368632|hu_hu|FALSE|FALSE (ssRNA)
RNA: GGGAGUUCUACAGUCCGACGAUCACAUCGAGCAACAUUACGGAUUGUGUAGCCACCUCCUCCAAGCAUCAGUAAUGGUAAGUUAAAAGUUUUUACAACUUCUACACAUUUAGCAUGACCUUUGACUGUUAGAUUGAAACAACCCAACAGAGGAUUGAGCAUCA
B13: chr4:82449818:82449819:-_ENSMUSG00000028403_ENSMUST00000030110|mus_mus|FALSE|FALSE (ssRNA)
RNA: GGGAGUUCUACAGUCCGACGAUCUGUAAUAAAUGUUUUGUUUUGUAGUAAAAUAGUAUUUUAAGUAAGUUUUUAUAAUGCUAACAAGAUAAGUUGCCAAAAUAAGGUUUAAAGUAAAAUACAUGAAACAGCUUAAACUAAUCGCAACAGAGGAUUGAGCAUCA
B14: chr1:60041781:60041782:+_ENSMUSG00000041040_ENSMUST00000036540|mus_hu|mus_mus_mus_hu_False|68_88 (ssRNA)
RNA: GGGAGUUCUACAGUCCGACGAUCAAGUUUACAAUAGUAAAGUAAAUCAAAUUUAGUCAAAUUUUCUUUACUUUAGUUUCACAAAAGAAAAUCUUUAUAACCCAGUCCUAGUCUUGGACAUAGUGAAAGCUAUAAAUUCUGACUCAACAGAGGAUUGAGCAUCA

Target: T1, UNK ZnF1-3
Assay: nsRBNS (natural sequence RNA bind-n-seq); RBNS binding buffer (assumed for nsRBNS): 25 mM Tris pH 7.5, 150 mM KCl, 3 mM MgCl2, 0.01% Triton X-100, 500 ug/ml BSA, 20 U/ml SUPERase-In, 4 C; UNK is unkempt and MSI1 is Musashi-1; names of the RNAs are library labels; protein concentration not given here; high values mean tight binding

Row | Binder | binding signal
1 | B1 | 1.55 enrichment R
2 | B2 | 0.662 enrichment R
3 | B3 | 0.679 enrichment R
4 | B4 | 1.3 enrichment R
5 | B5 | 0.798 enrichment R
6 | B6 | 0.481 enrichment R
7 | B7 | 0.866 enrichment R
8 | B8 | 1.45 enrichment R
9 | B9 | 0.509 enrichment R
10 | B10 | 0.899 enrichment R
11 | B11 | 0.55 enrichment R
12 | B12 | 1.67 enrichment R
13 | B13 | 1.59 enrichment R
14 | B14 | 0.453 enrichment R
